In PubChem BioAssay (NCATS):
Values joined by “and” are separate entries in the source; they are usually repeats but may differ in a detail not shown here. Equal values may be shown once. Inconclusive means that the source gave no clear call. Such entries were picked first, then a sample of the others. Potencies beside an inconclusive call are fits to weak or partial responses and may not hold up. Active and inactive are the calls of the source. Calls come from the whole dose curve; as a rule, active = well fitted curve in the direction sought with a large enough effect; inconclusive = small, poorly fitted or top-dose-only effect, or another doubt; inactive = no such curve, though single readings can be large; an effect the other way counts as inactive or inconclusive.

Experiment: qHTS for Inhibitors of Plasmodium falciparum (GB4) proliferation (AID 504315); note: nearly all actives have a fitted effect of over 50% in size;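 for activity change, negative = inhibition: 0% = DMSO vehicle and -100% = 0.29 µM artemisinin control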
Conditions: P. falciparum GB4 in erythrocytes, SYBR Green DNA, 72 h; activity change, negative = inhibition: at 6.7 µM (top of the series)
In short: (§1)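 Parasite growth measured as SYBR Green DNA fluorescence (ex 485, em 535 nm) after overnight lysis following 72 h culture at 37 °C, 0.3% parasitemia, 2.5% hematocrit. Values normalized against DMSO and 0.29 uM artemisinin controls, with plate-stack correction.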
Potency is the fitted concentration of half-maximal effect; tags give direction and shape of the fitted curve.

Row | Compound | Potency | activity change, negative = inhibition
1 | COC(=O)C1=C(C(=O)OC)[C@@H]2Nc3ccccc3[C@@]23C[C@@H](C(=O)OC)N(S(=O)(=O)c2ccc(Br)cc2)C3=N1 | active: 1.9 µM | –
2 | COC(=O)C1=C(C(=O)OC)[C@@H]2Nc3ccccc3[C@@]23C[C@@H](C(=O)OC)N(S(=O)(=O)c2ccc([N+](=O)[O-])cc2)C3=N1 | inconclusive: 4.26 µM [inhibitor, single point] | –
3 | CC#CCN1c2ccccc2[C@]23C[C@@H](C(=O)OC)N(C(=O)c4cc(C)oc4C)C2=NC(C(=O)OC)=C(C(=O)OC)[C@H]13 | inconclusive: 1.9 µM [inhibitor, single point] | –
4 | COC(=O)N1C2CC(=O)O[C@@H]3c4cc5c(cc4[C@]1(C)[C@@]3(Br)c1ccccc12)OCO5 | active: 1.51 µM | –
5 | CC#CCN1c2ccccc2[C@]23C[C@@H](C(=O)OC)N(S(=O)(=O)c4ccc(OC)cc4)C2=NC(C(=O)OC)=C(C(=O)OC)[C@H]13 | active: 2.13 µM | –
6 | O=C(NN=C1C[C@@H](O)[C@H](O)[C@H]2[C@@H]3C(=O)N(Cc4ccc5c(c4)OCO5)C(=O)[C@@H]3CC[C@H]12)OCc1ccccc1 | – | inactive: 0.653%
7 | CCCCS(=O)(=O)N1CCc2nc(-c3ccccc3)c3c(c2C1)CO[C@@H](C)C3 | inactive | –
8 | CC#CCN1c2ccccc2[C@]23C[C@@H](C(=O)OC)N(S(=O)(=O)c4ccc(Br)cc4)C2=NC(C(=O)OC)=C(C(=O)OC)[C@H]13 | active: 1.69 µM | –
9 | COc1ccc2c(c1)[C@@]1(OCCC=C[C@@H]1C)C(=O)N2CC=C(C)CCC=C(C)C | inconclusive: 1.51 µM [inhibitor, partial curve] | –
10 | COc1cc2c(c(OC)c1OC)[C@@]1(c3ccccc3)CCCCC[C@H]1[C@@H]2NC(=O)C(F)(F)F | inconclusive: 1.9 µM [inhibitor, single point] | –

Experiment: qHTS for Inhibitors of Plasmodium falciparum (7G8) proliferation (AID 504316); note: nearly all actives have a fitted effect of over 65% in size;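 for activity change, negative = inhibition: 0% = DMSO vehicle and -100% = 0.29 µM artemisinin full kill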
Conditions: P. falciparum 7G8 in erythrocytes, SYBR Green DNA, 72 h; activity change, negative = inhibition: at 6.7 µM (top of the series)
In short: as §1

Row | Compound | Potency | activity change, negative = inhibition
11 | C=CCN1c2ccccc2[C@]23C[C@@H](C(=O)OC)N(S(=O)(=O)c4ccc([N+](=O)[O-])cc4)C2=NC(C(=O)OC)=C(C(=O)OC)[C@H]13 | active: 1.69 µM | –
12 | COC(=O)C1=C(C(=O)OC)[C@@H]2N(C)c3ccccc3[C@@]23C[C@@H](C(=O)OC)N(S(=O)(=O)c2ccc([N+](=O)[O-])cc2)C3=N1 | inconclusive: 3.01 µM [inhibitor, single point] | –
13 | COC(=O)N1C(/C=C/C=C/c2ccc(OC)cc2)=Cc2ccccc2C1CC(C)=O (stereo not given) | active: 1.51 µM | –
14 | C=CCN1c2ccccc2[C@]23CCC(=O)N(CCOC)C2=NC(C(=O)OC)=C(C(=O)OC)[C@H]13 | inconclusive: 1.69 µM [inhibitor, partial curve] | –
15 | COC(=O)C1=C(C(=O)OC)[C@@H]2N(C)c3ccccc3[C@@]23C[C@@H](CO)N(C(=O)NC2CCCCC2)C3=N1 | inconclusive: 1.9 µM [inhibitor, single point] | –
16 | CC1=CC[C@@H](COc2ccccc2)O[C@@]2(C1)C(=O)N(Cc1ccccc1C(F)(F)F)c1ccccc12 | inconclusive: 1.51 µM [inhibitor, partial curve] | –
17 | C[C@@H]1C=CCC(=O)N[C@@H](c2ccc3ccccc3c2)[C@H](C)C=CCC(=O)N[C@@H]1c1ccc2ccccc2c1 | inconclusive: 0.675 µM [inhibitor, partial curve, poor fit] | –
18 | COC(=O)C1=C(C)N(Cc2ccccc2)C(=NCCc2ccc([N+](=O)[O-])cc2)NC1c1cccc(F)c1 (stereo not given) | active: 2.69 µM | –
19 | CC#CCN1c2ccccc2[C@]23C[C@@H](C(=O)OC)N(S(=O)(=O)CCCC)C2=NC(C(=O)OC)=C(C(=O)OC)[C@H]13 | inconclusive: 1.51 µM [inhibitor, partial curve] | –
20 | C=CCN1c2ccccc2[C@]23C[C@@H](C(=O)OC)N(S(=O)(=O)c4c(C)noc4C)C2=NC(C(=O)OC)=C(C(=O)OC)[C@H]13 | inconclusive: 4.26 µM [inhibitor, partial curve, poor fit] | –
21 | COC(=O)C1=C(C)N(Cc2ccccc2)C(=NCC2CC2)NC1c1cccc(C(F)(F)F)c1 (stereo not given) | – | inactive: -14.1%
22 | COC(=O)C1=C(C(=O)OC)[C@@H]2Nc3ccccc3[C@@]23C[C@@H](C(=O)OC)N(S(=O)(=O)c2ccc4c(c2)OCCN4C)C3=N1 | active: 1.51 µM | –
23 | COC(=O)C1=C(C(=O)OC)[C@@H]2N(C)c3ccccc3[C@@]23C[C@@H](C(=O)OC)N(S(=O)(=O)c2ccc(C(F)(F)F)cc2)C3=N1 | inconclusive: 1.69 µM [inhibitor, single point] | –
24 | COC(=O)N1[C@H]2CC[C@@]3(C)C=C(C)O[C@]1(C)C3c1ccccc12 | inconclusive: 4.26 µM [inhibitor, single point] | –
25 | C=CCN1c2ccccc2[C@]23C[C@@H](C(=O)OC)N(S(=O)(=O)c4ccc(C(F)(F)F)cc4)C2=NC(C(=O)OC)=C(C(=O)OC)[C@H]13 | inconclusive: 4.26 µM [inhibitor, single point] | –
26 | COC(=O)C1=C(C(=O)OC)[C@@H]2N(C)c3ccccc3[C@@]23C[C@@H](C(=O)OC)N(S(=O)(=O)c2ccc(Br)cc2)C3=N1 | active: 1.69 µM | –
27 | CC#CCN1c2ccccc2[C@]23C[C@@H](C(=O)OC)N(C(=O)C4CCC4)C2=NC(C(=O)OC)=C(C(=O)OC)[C@H]13 | inconclusive: 4.26 µM [inhibitor, single point] | –
28 | COc1ccc(-c2nc3c(c4c2C[C@H](c2ccccc2)OC4)CN(C(=O)C2CCCCC2)CC3)c(C)c1 | inconclusive: 1.69 µM [inhibitor, single point] | –
29 | C[C@H]1Cc2c(COc3ccccc3)nc3c(c2CO1)CN(C(=O)c1ccco1)CC3 | inconclusive: 1.2 µM [inhibitor, partial curve, poor fit] | –
30 | C=CCN1c2ccccc2[C@]23C[C@@H](C(=O)OC)N(S(=O)(=O)c4ccc5c(c4)OCCN5C)C2=NC(C(=O)OC)=C(C(=O)OC)[C@H]13 | active: 1.69 µM | –

Row | Compound | Potency | activity change, negative = inhibition
31 | COC(=O)CC=C[C@@H](C)[C@H](O)c1ccccc1Br | inconclusive: 3.79 µM [inhibitor, single point] and inconclusive: 1.69 µM [inhibitor, single point] | –
32 | CC(CCN1CCc2nc(-c3ccccc3)c(-c3ccccc3)cc2C1)=NOC[C@@H](O)[C@H]1O[C@@H]2OC(C)(C)O[C@H]2[C@@H]1O | active: 1.9 µM | –
33 | COC(=O)C1=C(C(=O)OC)[C@@H]2N(Cc3ccccc3)c3ccccc3[C@@]23C[C@@H](C(=O)OC)N(C(=O)c2ccc(Br)cc2)C3=N1 | inconclusive: 4.26 µM [inhibitor, single point] | –
34 | COC(=O)CCC(=O)OC1(C)C(=O)C=C2C=C(C3CC3)N(CC3CC3)C=C2C1=O (stereo not given) | inconclusive: 1.9 µM [inhibitor, single point] | –
35 | COC(=O)[C@@H]1CC[C@H](C)[C@@H](c2ccc(C)cc2)N1C(=O)c1ccc(C=NOC[C@@H](O)[C@H]2O[C@@H]3OC(C)(C)O[C@H]3[C@@H]2O)cc1 | active: 1.2 µM | –
36 | COC(=O)C1=C(C(=O)OC)[C@@H]2Nc3ccccc3[C@@]23C[C@@H](C(=O)OC)N(C(=O)CC(C)C)C3=N1 | inconclusive: 2.13 µM [inhibitor, single point] | –
37 | COC(=O)N1C2=C(c3ccccc3[C@@H]1CC(=O)Nc1ccc3cc4ccccc4cc3c1)[C@@H]1C(=O)N(c3ccccc3)C(=O)[C@@H]1[C@H](C)C2 | active: 1.9 µM | –
38 | COC(=O)C1=C(C(=O)OC)[C@@H]2Nc3ccccc3[C@@]23C[C@@H](C(=O)OC)N(S(=O)(=O)c2ccc(C#N)cc2)C3=N1 | inconclusive: 1.9 µM [inhibitor, single point] | –
39 | COc1ccc(-c2nc3c(c4c2C[C@H](c2ccccc2)OC4)CN(C(=O)c2ccco2)CC3)c(C)c1 | active: 1.69 µM | –
40 | COc1ccc(-c2nc3c(c4c2C[C@H](c2ccccc2)OC4)CN(S(=O)(=O)c2c(C)noc2C)CC3)c(C)c1 | active: 1.69 µM | –
41 | COC(=O)C1=C(C(=O)OC)[C@@H]2Nc3ccccc3[C@@]23C[C@@H](C(=O)OC)N(S(=O)(=O)c2ccc(Br)cc2)C3=N1 | inconclusive: 3.01 µM [inhibitor, single point] | –
42 | COC(=O)C1=C(C(=O)OC)[C@@H]2Nc3ccccc3[C@@]23C[C@@H](C(=O)OC)N(S(=O)(=O)c2ccc([N+](=O)[O-])cc2)C3=N1 | inconclusive: 3.38 µM [inhibitor, single point] | –
43 | CC#CCN1c2ccccc2[C@]23C[C@@H](C(=O)OC)N(C(=O)c4cc(C)oc4C)C2=NC(C(=O)OC)=C(C(=O)OC)[C@H]13 | active: 1.51 µM | –
44 | COC(=O)N1C2CC(=O)O[C@@H]3c4cc5c(cc4[C@]1(C)[C@@]3(Br)c1ccccc12)OCO5 | active: 1.69 µM | –
45 | CC#CCN1c2ccccc2[C@]23C[C@@H](C(=O)OC)N(S(=O)(=O)c4ccc(OC)cc4)C2=NC(C(=O)OC)=C(C(=O)OC)[C@H]13 | inconclusive: 4.26 µM [inhibitor, single point] | –
46 | O=C(NN=C1C[C@@H](O)[C@H](O)[C@H]2[C@@H]3C(=O)N(Cc4ccc5c(c4)OCO5)C(=O)[C@@H]3CC[C@H]12)OCc1ccccc1 | inconclusive: 1.51 µM [inhibitor, partial curve] | –
47 | CCCCS(=O)(=O)N1CCc2nc(-c3ccccc3)c3c(c2C1)CO[C@@H](C)C3 | inactive | –
48 | CC#CCN1c2ccccc2[C@]23C[C@@H](C(=O)OC)N(S(=O)(=O)c4ccc(Br)cc4)C2=NC(C(=O)OC)=C(C(=O)OC)[C@H]13 | active: 1.9 µM | –
49 | COc1ccc2c(c1)[C@@]1(OCCC=C[C@@H]1C)C(=O)N2CC=C(C)CCC=C(C)C | inconclusive: 0.379 µM [inhibitor, partial curve] | –
50 | COc1cc2c(c(OC)c1OC)[C@@]1(c3ccccc3)CCCCC[C@H]1[C@@H]2NC(=O)C(F)(F)F | inconclusive: 0.675 µM [inhibitor, single point] | –
